Some of the results follow.
Target: T1, OsWOX13 (Oryza sativa, UniProt Q5QMM3 1-267)
T1 sequence: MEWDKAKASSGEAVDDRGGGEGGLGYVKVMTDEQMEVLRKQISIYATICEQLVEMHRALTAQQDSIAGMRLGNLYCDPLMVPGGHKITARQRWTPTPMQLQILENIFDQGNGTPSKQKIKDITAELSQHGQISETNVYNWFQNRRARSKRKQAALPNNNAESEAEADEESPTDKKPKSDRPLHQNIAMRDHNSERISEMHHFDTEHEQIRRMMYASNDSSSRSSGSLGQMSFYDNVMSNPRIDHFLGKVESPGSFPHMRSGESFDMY
Experiment: protein-binding microarray (RPBM); PBS, 2% BSA, 51.3 ng/ul salmon testes DNA, 50 uM zinc acetate, 200 nM TF, 25 C, 1 h; high values mean tight binding
Conditions: protein: recombinant; tags: N-terminal polyhistidine and DsRed monomer fusion (pET32a); label: CyDye5-dUTP incorporated in the synthesized complementary strand; 3' TTTTT single-stranded linker to array surface; dsDNA, one strand shown
In short: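 Binding signal here means per-feature fluorescence intensity in arbitrary units. The values were read on an Axon 4000B scanner after a custom Agilent array, double-stranded by primer extension with Cy5-dUTP, was incubated with 200 nM protein at 25 °C for 1 h in PBS with 2% BSA, salmon testes DNA and 50 µM zinc acetate, then washed. The proteins were transcription factors with an N-terminal polyhistidine tag and DsRed, expressed in E. coli BL21-CodonPlus and purified on Ni–NTA.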

Row | Sequence | binding signal
1 | CAATGTGACTGACACAAACATTTCAGGTCGACTTCCCCAGCGGAGTCACCTAGTGCAG | 14500 fluorescence intensity (a.u.)
2 | TCACGTAGACGGCGCGGTGATTAGTTAATCATTGTTGTTCCGGAGTCACCTAGTGCAG | 5780 fluorescence intensity (a.u.)
3 | TGTGATAGATTGTGCAAAATATATGTAGTTTTATGAAATTCGGAGTCACCTAGTGCAG | 14400 fluorescence intensity (a.u.)
4 | CAAACTGATGAGGCCAACAATATCTGGTCCATCTGAATCACGGAGTCACCTAGTGCAG | 3790 fluorescence intensity (a.u.)
5 | TTTCGTGATTTTCCCCGGTTGGCCACTACTTTTGCGATTTCGGAGTCACCTAGTGCAG | 9240 fluorescence intensity (a.u.)
6 | ATGACTGTGAAGTCTGACTGTCTGAGTGTCTGCTTCATCACGGAGTCACCTAGTGCAG | 5010 fluorescence intensity (a.u.)
7 | AGTTTAATTTGGAGCACACATTTCAGCTCACCACTGCTAGCGGAGTCACCTAGTGCAG | 13300 fluorescence intensity (a.u.)
8 | ATTCTGATTATGCTCATGCTCTTTTAGGTGAGGAGTTGTCCGGAGTCACCTAGTGCAG | 15600 fluorescence intensity (a.u.)
9 | CAAAATTGATGGCAGACAGTGAAAATTCATACCCGGCGCTCGGAGTCACCTAGTGCAG | 45600 fluorescence intensity (a.u.)
10 | AGTTCAATCAAACTTGGATGGAGAAATGACCAAAAGAAAACGGAGTCACCTAGTGCAG | 5550 fluorescence intensity (a.u.)
11 | TATATAATAATTACAATGTAATTGTAGGTAAGTTATAGAGCGGAGTCACCTAGTGCAG | 12300 fluorescence intensity (a.u.)
12 | GCAGAAATGCAATCAATTAAGCACTTGTAGGTCGTCTGACCGGAGTCACCTAGTGCAG | 32100 fluorescence intensity (a.u.)
13 | TAGCAGTATTAATTAATTTGCAAAAGTTATAATTATCTCACGGAGTCACCTAGTGCAG | 12100 fluorescence intensity (a.u.)
14 | TCCCTGAATTTTAGGAGTGATTGGACCTAAAGTTGAGGAGCGGAGTCACCTAGTGCAG | 17200 fluorescence intensity (a.u.)
15 | ATGAGTGAAATTAGAGCACCCTGTAAACATATCCTCATTTCGGAGTCACCTAGTGCAG | 8270 fluorescence intensity (a.u.)
16 | TAAAATATAAATTTTATATAGTTCAATCAAACTCGGATGGCGGAGTCACCTAGTGCAG | 7210 fluorescence intensity (a.u.)
17 | GACCTCTTAATTGAAAATTTTGATCTCTGACCTGTGATCTCGGAGTCACCTAGTGCAG | 40400 fluorescence intensity (a.u.)
18 | GCTTTCACACGGATTTTAATTATTCTAGGCATAATTTAAACGGAGTCACCTAGTGCAG | 3800 fluorescence intensity (a.u.)
19 | CAATATATGTTGTGGTAATTGGATGTAAATTGTACTAGAACGGAGTCACCTAGTGCAG | 9800 fluorescence intensity (a.u.)
20 | TCACCATAATAAATTGAACATAAATTAGTTTAACCGAGGACGGAGTCACCTAGTGCAG | 21600 fluorescence intensity (a.u.)
21 | ATACTCGATTATGGATTTTAATTATGAACAGGCAAAGTGGCGGAGTCACCTAGTGCAG | 7040 fluorescence intensity (a.u.)

Row | Sequence | binding signal
22 | TTAATGCAGACTAAATTGCCTATATATACCACGTCTAGCACGGAGTCACCTAGTGCAG | 5510 fluorescence intensity (a.u.)
23 | GCAGTAGATAGATTAGCAGGGGCAGCATCTCTCACAGTCACGGAGTCACCTAGTGCAG | 24600 fluorescence intensity (a.u.)
24 | GAAAATTAATTCAATACCTTAGACTTACTGGAAAGTACATCGGAGTCACCTAGTGCAG | 7650 fluorescence intensity (a.u.)
25 | ATAATTAAGTCCTTTGATAACAAAGAACTTAATTGGGTCACGGAGTCACCTAGTGCAG | 8270 fluorescence intensity (a.u.)
26 | TGCTAATCAAGTTCTAGAATTAGCACCTATATAACTAATTCGGAGTCACCTAGTGCAG | 4940 fluorescence intensity (a.u.)
27 | TCAGATATCAATTTACTCTTTCCCAATAATTTTAAGGGTACGGAGTCACCTAGTGCAG | 13400 fluorescence intensity (a.u.)
28 | TATAATTAAGAATCACAAGCATCTCATAACTTACCACCAGCGGAGTCACCTAGTGCAG | 8630 fluorescence intensity (a.u.)
29 | ACCATGATAGAAGCTTTCAAGCACTTTGTCAAGGCTGTGGCGGAGTCACCTAGTGCAG | 3850 fluorescence intensity (a.u.)
30 | TAGAAAATTATAAAATTATTATTTGTTTTATGTATGACACCGGAGTCACCTAGTGCAG | 17500 fluorescence intensity (a.u.)
31 | GTACTAGCAATTAGCAAATCATTTCTATGCATTGATTTGACGGAGTCACCTAGTGCAG | 17600 fluorescence intensity (a.u.)
32 | TTGTTATTACACATTGATGAGACATCAAACTATGCTGACTCGGAGTCACCTAGTGCAG | 4150 fluorescence intensity (a.u.)
33 | CGTTTGATAGGCCATAGCCAATAATCTTCATGTTTCTTTCCGGAGTCACCTAGTGCAG | 4470 fluorescence intensity (a.u.)
34 | ATAATAATTAAGTCTTCAATTTCACAATTAAAGTATTGAGCGGAGTCACCTAGTGCAG | 23100 fluorescence intensity (a.u.)
35 | AAATAACTGGTTTGACTGCTGCCCCAAGAAGATTTGTGTGCGGAGTCACCTAGTGCAG | 18100 fluorescence intensity (a.u.)
36 | GTCCCGTCGCAATCATGTTAACCTCATCCTCATTCGTCACCGGAGTCACCTAGTGCAG | 7050 fluorescence intensity (a.u.)
37 | CGGTAAGATTGACGGTGAAGAGGCTGCGGAAAAGGAGTTCCGGAGTCACCTAGTGCAG | 15700 fluorescence intensity (a.u.)
38 | ATATATATATATATATATATATATATATTAATGAATCGCTCGGAGTCACCTAGTGCAG | 29500 fluorescence intensity (a.u.)
39 | TTTTATGAGATTATATTATAGATTTGACATTTATGGTGGACGGAGTCACCTAGTGCAG | 6040 fluorescence intensity (a.u.)
40 | ACGCAATCATGCAATCATTTGCAATGAAATTTTCTGATATCGGAGTCACCTAGTGCAG | 20200 fluorescence intensity (a.u.)
41 | GACCAACCATCATCAATCATCGCTAAGCCCACCTCGGAGACGGAGTCACCTAGTGCAG | 9540 fluorescence intensity (a.u.)
42 | TTTTATTCCTAATTGGCCGTCAATCCCATCGGTGCAGTAACGGAGTCACCTAGTGCAG | 19600 fluorescence intensity (a.u.)

Source: article PMC7819943, “Rice protein-binding microarrays: a tool to detect cis-acting elements near promoter regions in rice”
